In article PMC10527347 (Journal of molecular biology, 2023):

Target: the molecule itself
Assay: cross-linking

B1: Hsp90Ec N347C (natural protein)
chain: not shown
B1: binds.
